{
  "source": "patent US11643474B2",
  "about": "“Peptide fusion protein” (KAGOSHIMA UNIVERSITY, priority 2018, dated 2023)",
  "molecules": {"B1": {"name": "sfGFP-173 C2Opt1GSl2: sfGFP fusion protein including two IgG-binding peptides, amino acid sequence SEQ ID NO: 47; immobilized on column in Example 3 (protein)", "chain": "MRKGEELFTGVVPILVELDGDVNGHKFSVRGEGEGDATNGKLTLKFICTTGKLPVPWPTLVTTLTYGVQCFARYPDHMKQHDFFKSAMPEGYVQERTISFKDDGTYKTRAEVKFEGDTLVNRIELKGIDFKEDGNILGHKLEYNFNSHNVYITADKQKNGIKANFKIRHNVEGGGGSGGGGSGPDCAYHRGELVWCTFHGGGGSGGGGSDGSVQLADHYQQNTPIGDGPVLLPDNHYLSTQSVLSKDPN[left out - about 20 residues]GGGGSGGGGSGPDCAYHRGELVWCTFHGGGHHHHHH"}},
  "key": {"human IgG": {"test_system": "human IgG", "experiment": "Affinity measurement to IgG by surface plasmon resonance (BIAcore T200)", "type": "binding", "conditions": "ligand immobilized onto sensor chip, HBS-EP buffer pH 7.4", "experimental": "The affinity analysis was performed by the following method. First, a solution containing equal amounts of 0.4 M EDC (1-ethyl-3-(3-dimethylaminopropyl)-carbodiimide) and 0.1 M sulfo-NHS (sulfo-N-hydroxysuccinimide)) was injected at a flow rate of […] onto a CMS sensor chip set in BIAcore T200 (GE healthcare), thereby activating the sensor chip. Then, under the condition of pH 5.5 (10 mM Na acetate), the purified protein (sfGFP-C-1Opt1) described above was immobilized onto the sensor chip. For the measurement, HBS-EP buffer (10 mM HEPES, 150 mM NaCl, 0.005% Tween 20, 3 mM EDTA, pH 7.4) was used, and the binding reaction was monitored by injecting 6.25, 12.5, 25, 50, 100, 200, and 400 nM human IgG for 180 seconds at a flow rate of […]. For measuring the dissociation reaction, only the buffer was injected for 600 seconds. The analysis of interaction parameters was performed using BIA evalution T100 software.\nAs Comparative Example 1, a scaffold protein (sfGFP having a His tag; DNA sequence: SEQ ID NO: 40, amino acid sequence: SEQ ID NO: 41) to which an IgG-binding peptide was not fused was expressed and purified in the same manner as in Example 1, and affinity was measured.\nProteins including two IgG-binding peptides, each consisting of the amino acid sequences represented by SEQ ID NO: 45, SEQ ID NO: 47, and SEQ ID NO: 49 (sfGFP-N C-2Opt1GS12 (DNA sequence: SEQ ID NO: 44), sfGFP-173 C-2Opt1 GS12 (DNA sequence: SEQ ID NO: 46), and sfGFP-173 C-2Opt1GS13 (DNA sequence: SEQ ID NO: 48)) were expressed and purified by the same method as in Example 1, and the affinity was measured.\nAs Comparative Example 2, the affinity measurement of the peptide (amino acid sequence: SEQ ID NO: 18) prepared by chemical synthesis was carried out in the same manner as in Example 1."}, "[1]": {"test_system": "human serum-derived γ-globulin", "experiment": "Dynamic binding capacity (DBC) measurement on ligand-immobilized NHS-activated prepack column", "conditions": "1 mL column; 1 mg/mL γ-globulin at 1 mL/min; 10% breakthrough at 280 nm; equimolar ligand (7.3 mg protein or 0.5 mg peptide)", "experimental": "To examine whether the IgG-binding peptide divalent fusion protein can be used as an affinity ligand for human antibody purification, the protein prepared in Example 2 (sfGFP-173 C-2Opt1 GS12) was immobilized on an NHS-activated prepack column (GE Healthcare), and the adsorption performance was evaluated. The protein-immobilized column was prepared by the following method. A syringe was used to feed the solution.\n5 mL of 1 mM hydrochloric acid was fed to a NHS-activated prepack column with a volume of 1 mL to remove the isopropanol solution in the column. Then, 1 mL of a coupling solution (200 mM carbonate buffer, 500 mM sodium chloride, pH 8.3) containing 7.3 mg of an IgG-binding peptide fusion protein was fed and immobilized at room temperature for 1 hour. The unreacted NHS ester was blocked by adding tris-hydroxymethylaminomethane. Finally, 5 mL of an adsorption solution (20 mM phosphate buffer, 150 mM sodium chloride, pH 7.4) was fed and used for DBC measurement.\nThe DBC measurement was performed using a liquid chromatography instrument AKTAexplore (GE Healthcare). […] The DBC was determined from the amount of the sample fed until the value of an absorbance at 280 nm excluding the non-adsorbed component reached 10% of the absorbance of the entire sample. […]"}},
  "data": [
    {"molecule": "B1", "values": [
      {"measurement": "kon", "setting": "human IgG; 6.25-400 nM human IgG injected 180 s", "value": 310000, "unit": "M⁻¹ s⁻¹"},
      {"measurement": "koff", "setting": "human IgG; buffer only injected 600 s for dissociation", "value": 0.00054, "unit": "s⁻¹"},
      {"measurement": "Kd", "setting": "human IgG; human IgG as analyte", "value": 1.8, "unit": "nM"},
      {"measurement": "DBC (dynamic binding capacity)", "setting": "[1]", "value": 8.9, "unit": "mg/mL-column"}
    ]}
  ]
}
